In patent US8541447B2 (priority 2003, dated 2013) one finds Ki data, which are given here for 1 compound.

The structures appear in SMILES notation.

This experiment has as its target α7 nAChR subtype (Rattus norvegicus (Rat), UniProt Q05941). To be noted: Table 5, effect of the 2-(3-pyridinyl)methyl substituent; read-out: a7 Ki.

α7 nAChR subtype, sequence (Q05941 23-502 limits assumed): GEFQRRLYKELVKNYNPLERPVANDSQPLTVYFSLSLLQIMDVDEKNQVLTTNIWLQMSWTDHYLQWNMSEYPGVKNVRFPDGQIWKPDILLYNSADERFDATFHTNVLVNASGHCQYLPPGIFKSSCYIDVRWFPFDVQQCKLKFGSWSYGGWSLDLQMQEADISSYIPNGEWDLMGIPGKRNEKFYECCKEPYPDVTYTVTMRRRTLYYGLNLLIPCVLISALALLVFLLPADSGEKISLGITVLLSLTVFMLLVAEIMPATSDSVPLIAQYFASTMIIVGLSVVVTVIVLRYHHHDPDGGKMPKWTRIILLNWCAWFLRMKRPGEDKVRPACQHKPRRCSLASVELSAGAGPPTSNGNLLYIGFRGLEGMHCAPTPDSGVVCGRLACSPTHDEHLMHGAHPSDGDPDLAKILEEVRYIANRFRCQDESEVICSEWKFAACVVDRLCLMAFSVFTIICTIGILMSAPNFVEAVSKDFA

The Ki is the equilibrium dissociation constant of an inhibitor or competing ligand from its target. Regarding `O=C(Nc1ccc(Br)cc1)OC1CN2CCC1CC2` (stereo not shown), the Ki was 40 nM.
